Experimental data published in the supplement of paper PMC12632987.
The full ranking holds about 4,500 sequences; the median of “median log2 fold change of GCK-ALFA target abundance (FLAG IP / Myc IP barcode read proportion)” is about 0.078, and the lowest 2% start at about -0.6. This is one part of the list.

B1: GBRAP_11_2700 (protein)
chain: KKEQLKEARELAEKLAEVLDKLIKEGPDNEELLKEAEELLKKIEELTKKYGDEGAKKLTEIIKELWEEAKKDKENQVQYLKEARAAARVLAGQFLLEIEE
B2: GBRAP_52_6195 (protein)
chain: MRERMRKLAQEIVELVKAGKREEARKMMRELARTLSEEELRLLGEEFAEIAREARPEDFDAVFEAAEMMADVLEEEGHDEVLADDLLARVAAALYERELA
B3: GBRAP_52_5897 (protein)
chain: ATERLVRLLLEAAELVAAGDEEGAKEKIREAIKEGAKLTEEEVRAAIARAAERLAGLPQEVLERLLELVLEVYDEDDDLTDEERAVLGDIAAALARLILA
B4: GBRAP_125_3010 (protein)
chain: GMAEVAAALGRIAAALGFSPEDVAELEELARKHGLKGTFYALLLALGQEELADLVEQLTEEQVAEVVLEVAAELEANPDLTPEEVVALIREVLERALAKQ
B5: GBRAP_95_7047 (protein)
chain: EDLELALESTQEVLQTYLDLGNEEQAERAAERAVELAVEGGILPFSSSLSEEALLLIARAAARRLDEETVAALVEALVAAAGDEAVRERLEAVVAEVRAE
B6: GBRAP_57_6440 (protein)
chain: MSRVEKAKKLAEEIKKALEEGAPKEEILELFRKLLELLSRESLLDVALLVDPSTREDASREELIERLLELFERALEEEGKEKALEIVDLVEGEIEMEESE
B7: GBRAP_160_4023 (protein)
chain: SESVKKIIEDFKKEVELILENAKEMDEKTIAGALRTAVGQAIMDMSEDPNMKDATREEVDELDKLAEETAKILSKGDEEEAKKAAEELLKKVAKVVEKAA
B8: GBRAP_95_7036 (protein)
chain: EDDQLALESAIEVAITLADLGDAEAAARAALEALRLLREGGVIPIDPELARELIRVLREVLVDVLPAEEVAELLEAIREAAEDPEVRAEAEEALAEVRAR
B9: GBRAP_160_4590 (protein)
chain: SEALEKMKKIVDEELEEAKEMIEGETAEQRATIIAGAGGEIIWELSEDPTASDELLDKVDEIIDEAVDTVLANPDLTLEEVKELIDEAREKIKEAIKESF
B10: GBRAP_184_5218 (protein)
chain: ATVRRAVEATTAEEAIAKADAVVAEAAAAGETLELVVILRDMSLEEIEEVMAHLAALRDAGRVADATVVVEDPVSEEELDRLVALADRYGVRLVAALKDE
B11: GBRAP_128_3507 (protein)
chain: SMEEAVEKVKKLMEEIKKADPETARKLTEEIVELLNSVSDETAEAMVEVILKELPKLSKEKLDVLADTLRENRPKVSPEKANLLAEIEVEALNEALEQEE
B12: GBRAP_128_3355 (protein)
chain: LNEEFLEEVKKTVEAMKTADVETVYKLTKELVEKISKASKEEQEAAFEILKEALPKFDAEKLEAIADAIEEQLPKLDPYTANLAADVLVEALNLAEEKEE
B13: GBRAP_160_4315 (protein)
chain: KEEYEALKKEIKEIFEEAKELIKGQTPEERKTIVRVALGDVLLLADENPAISDELEDQIAAIADEAEATVDANPNLTEEEVKALLEEAEKKILALIEKEA
B14: GBRAP_52_5886 (protein)
chain: KLEEAVKLLKEMIKAVKAGKEEEAKKLAKEIVENFDEDTIVEAVERVAEELKDKSLEEAEAFWKAAELLAKELLKKGGSEEIASYIEAIAGATLYEVSQK
B15: GBRAP_150_3905 (protein)
chain: DLETLLDIVDTAIDIAEAILDGEFDLLPHLLKLAKAAVDEAKDIDEELLKIAEEALAHVEAALKLLKEGGDEADIKAEVQEALALLEKLRELIEKKIEEE
B16: GBRAP_128_3585 (protein)
chain: SVEAVRAETRALMEAMTRADDAEAAALARELAARLTTLSLEEAEAAAEVIREELPRLSARHLEILADALEAARPQMTPEKAELAADVQVEALNEAVEKEE
B17: GBRAP_160_3985 (protein)
chain: EERLEELKEYIDEEFEEAKKMIEGETHEERVTIVRGYFGEIIMELSEDENVSEEAEEKIAKIGDETVKTIESNPDLTEEEIKKLIEEARDKIKEVLEEDY
B18: GBRAP_128_3414 (protein)
chain: STEEIVAKARELLEAMLTAGPEEQKKLAEELAELIKESDLETAEAIAEVILEMLPKFTAEQLDILADALRKHRGELTPEKQELVAEVIVEALNRREELEE
B19: GBRAP_128_3522 (protein)
chain: SIEEAIKEAKEVMEKIKNSSVEEAYEIAKEWLEKLKEWSLEEVEAAVDVMKELLPELSAEKLEAVADAIEEQRDKFSPEVARLLADLEVEALNEAEELEE
B20: GBRAP_184_5187 (protein)
chain: MVVEEELEIEDVAEARAKIAAIGERIAGKKAKLRVIVKAKKITVEIARTIMEGLGAIKAAGNATDITVELVGEMSEEVIDTAVELAKKAGIRVVIAMSEE
B21: GBRAP_166_4939 (protein)
chain: SIEEMIEELREKIEEAVEEFPSLTPEERLERAMEIGEMVRELREAGASDEEILELLKEFAKLLLEAGLDAKRLVSAVILMAELDEELEEKVWDEIDKLEK
B22: GBRAP_160_4457 (protein)
chain: DELREKLIKEVDETRDETLELIEGESHEQRVVIVEGEFGSLLLDFASDERVSDELEDEIAKIIDDLVAYLRAHPDLTEEEIKALIDEAAEEIKKAIEKHL
B23: GBRAP_42_5721 (protein)
chain: LYEVNVEIYVETVEEAEEAAEIVEKRNEEYKKKYGIIINLTIVGPEEVKELAEEINKKFEEKAKEADKSLDWVVVAGNAERVEEAIDAAVDLGLEEKKEE
B24: GBRAP_128_3190 (protein)
chain: SVEEVKKYTKEMMEKIKNSNEEEARKIAEELMEKLKTLSLEEVEAAVEVVLEMLPELSEEHLKILADVTREKRPEFTPEKANLVAEVEVEALNLLVEKEE
B25: GBRAP_128_3230 (protein)
chain: MSPELRAKVDALIKTIVEGDVAEAAAATAELVALMGEVSLEEAEEIAERLIAAIPKLTAEKLDAVADTLRENRGTLSPEKAALAAEVEIEALEQAEELEE
B26: GBRAP_84_6999 (protein)
chain: STDEEIIELAKEIFDRVKGEAAVKILALVLLKVTGETATRILNYALERDPQVAYDALSLAYEVVSEDKEEELEEEARRLMAEESPEVRAKFERLLELMKA
B27: GBRAP_48_5816 (protein)
chain: MEFDEEKLKKLVEETVEEIYELYEEAKKAGLSDEEILKLIKAELGDLALELEEAGFEKAADYLLEPKNREELAKKLYEFFKEGKKEEAKEYLFNKLKAAE
B28: GBRAP_160_4402 (protein)
chain: KEKFEKTKKEIKEIFEETKKMIEGQTPEEIKTIIEVSAGQILLEVESNEEFSDEEIDEFSKILDRYVERAKKAVEEGLEAVKEEIERMRKEVEEFIEKIE
B29: GBRAP_166_4919 (protein)
chain: SMEERVEEAEERLRRVIEEERADPRMTPEQITVALADETAEILEEEKDRETRLAIVERALRLAKEAGLDPRRLAELTAGLYGFSDEEEEEIEKIVEEILA

target: GABARAP, O95166; test: median log2 fold change of GCK-ALFA target abundance (FLAG IP / Myc IP barcode read proportion) (log2 ratio); each designed protein is fused to an ALFA-tag nanobody in HEK293 cells to bring the named protein to FLAG-tagged glucokinase (GCK); Myc marks an untargeted standard; higher = target protein stabilised (more abundant); details: target protein: 3xFLAG-MCP-GCK-ALFA reporter; HEK293 landing pad (RPLP)
Method in brief: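 Binders fused to an ALFA nanobody were recombined as a library into HEK293 landing-pad cells, which were induced with 2 μg mL^−1 doxycycline and then transfected to express a FLAG-tagged target and a Myc-tagged standard. After 48 h, circular RNA barcodes recovered by anti-FLAG and anti-Myc immunoprecipitation of lysates were reverse transcribed, amplified and sequenced. Each binder's target abundance is the median log2 ratio of FLAG to Myc barcode read proportions, from barcodes present at ≥10^−7 in both replicates, binders carrying ≥3 barcodes per replicate, a 10^−6 pseudocount and pooled replicates.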

Sequence of GABARAP, O95166 (O95166 whole entry, the tested form may be a part): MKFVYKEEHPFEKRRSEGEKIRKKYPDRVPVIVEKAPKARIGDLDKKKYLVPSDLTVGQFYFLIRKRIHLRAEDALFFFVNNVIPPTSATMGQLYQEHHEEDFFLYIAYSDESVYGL

| Binder | median log2 fold change |
| --- | --- |
| B1 | 0.12 |
| B2 | -0.0573 |
| B3 | -0.588 |
| B4 | -0.0499 |
| B5 | 0.318 |
| B6 | 0.179 |
| B7 | 0.203 |
| B8 | -0.00145 |
| B9 | -0.188 |
| B10 | -0.0314 |
| B11 | 0.0346 |
| B12 | 0.117 |
| B13 | -0.453 |
| B14 | 0.12 |
| B15 | -0.0402 |
| B16 | 0.117 |
| B17 | 0.139 |
| B18 | 0.341 |
| B19 | 0.186 |
| B20 | 0.57 |
| B21 | 0.209 |
| B22 | 0.0207 |
| B23 | 0.117 |
| B24 | 0.167 |
| B25 | 0.179 |
| B26 | -0.601 |
| B27 | 0.16 |
| B28 | 0.143 |
| B29 | 0.291 |
